Measurements as given in PubChem BioAssay AID1434 (Sanford-Burnham Center for Chemical Genomics, 2008).
Some of the results follow. These are further read-outs of the screen, such as a control signal, another cell line or another target. No call is given for them. Compounds called inactive in the main read-out are mostly missing here.

biological target: Runt-related transcription factor 1 (Homo sapiens) + Core-binding factor subunit beta (Homo sapiens) (UniProt Q01196+Q13951); experiment: disruptors of Runt domain/CBFb-SMMHC interaction – biochemical, FRET, Cerulean-Runt, Venus-CBFb-SMMHC, uHTS, primary screen (AID 1434); conditions: Cerulean-Runt/Venus-CBFb-SMMHC FRET ratio 530/480, 1 h; retest duplicate average; at 20 µM; stronger effect = higher value;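 note: 0% = DMSO wells and 100% = wells with excess untagged CBFb-SMMHC; inhibitors lower the FRET ratio by blocking Runt binding to CBFb-SMMHC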
Sequence of UniProt Q01196 (Q01196 whole entry, looked up, the tested form may be a part): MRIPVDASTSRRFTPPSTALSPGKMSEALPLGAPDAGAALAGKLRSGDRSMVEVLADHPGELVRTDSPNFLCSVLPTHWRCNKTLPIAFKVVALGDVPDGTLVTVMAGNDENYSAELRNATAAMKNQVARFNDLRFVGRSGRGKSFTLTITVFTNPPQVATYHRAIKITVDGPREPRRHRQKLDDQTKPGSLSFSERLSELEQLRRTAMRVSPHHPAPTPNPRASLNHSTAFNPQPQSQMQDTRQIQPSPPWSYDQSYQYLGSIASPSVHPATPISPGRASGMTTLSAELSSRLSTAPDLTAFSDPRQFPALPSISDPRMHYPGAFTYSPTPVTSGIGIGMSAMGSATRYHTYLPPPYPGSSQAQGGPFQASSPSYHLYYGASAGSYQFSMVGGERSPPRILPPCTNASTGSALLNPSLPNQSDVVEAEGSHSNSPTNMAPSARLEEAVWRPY
Sequence of UniProt Q01196 (Q13951 whole entry, looked up, the tested form may be a part): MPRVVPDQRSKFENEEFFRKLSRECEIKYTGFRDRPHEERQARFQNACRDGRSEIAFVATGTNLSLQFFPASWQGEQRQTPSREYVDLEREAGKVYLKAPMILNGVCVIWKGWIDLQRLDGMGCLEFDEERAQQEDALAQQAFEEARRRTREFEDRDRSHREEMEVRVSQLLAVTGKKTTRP

Row | Structure (SMILES) | inhibition
1 | O=c1cc(-c2ccc(O)cc2)oc2cc(O)c(C3OC(CO)C(O)C(O)C3O)c(O)c12 (stereo unspecified) | 88.9%
2 | CCOC(=O)C1=C(CSc2nc3c(cc2C#N)CN(C)CC3)OC(N)=C(C#N)C1c1ccc(Cl)cc1 (stereo unspecified) | 61.6%
3 | CCN1CC=C2C(C#N)=C(N)C(C#N)(C#N)C(c3cc(Cl)ccc3Cl)C2C1 (stereo unspecified) | 75%
4 | CCC(=O)Nc1c(S(=O)(=O)c2ccccc2)c2nc3ccccc3nc2n1Cc1ccccc1 | 142%
5 | CC1(C)CC(=O)C2=C(C1)N(c1cccc(O)c1)C1=C(C2)C(=O)CC(C)(C)C1 | 72.9%
6 | CCOC(=O)c1c(/N=C/N(C)C)sc(C=O)c1-c1ccccc1 | 178%
7 | CCOCCCNC(=S)NCCNc1nc2c(C)cccc2cc1C#N | 85.1%
8 | Cc1ccc(S(=O)(=O)c2cc3c(=O)n4ccccc4nc3n(CC3CCCO3)c2=N)cc1C (stereo unspecified) | 135%
9 | CCCCc1cc(=O)oc2c(CN(C)C)c(O)c(Cl)cc12 | 154%
10 | CC(=O)N1CC[n+]2c(-c3ccc(Cl)cc3)csc21 | 50.3%
11 | N#Cc1c2c(c(NCCN3CCOCC3)n3c1nc1ccccc13)CCCC2 | 111%
12 | COc1ccc(Br)cc1C1NC(=O)c2c(sc3c2CCN(C)C3)N1 (stereo unspecified) | 167%
13 | CCn1c(SCC(=O)c2ccccc2)nc2sc3c(c2c1=O)CCN(C)C3 | 60.8%
14 | COc1nc(N)c(S(=O)(=O)c2ccccc2)cc1C#N | 121%
15 | O=C(Nc1nc2c(s1)CN(Cc1ccccc1)CC2)C1CCC1 | 152%
16 | CCOC(=O)CCc1c(C)c2ccc(O)cc2oc1=O | 90.3%
17 | Nc1nc(N)c2nc(-c3ccccc3)c(N)nc2n1 | 60.7%
18 | Cc1ccccc1C(=O)N=c1c(C#N)cc2c(=O)n3cccc(C)c3nc2n1Cc1ccco1 | 102%
19 | C(=N\n1cnnc1)/c1ccc(N2CCOCC2)s1 | 67.3%
20 | CC1=C(C(=O)OCC2CCCO2)C(c2ccccc2OC(C)C)C2=C(CC(c3ccco3)CC2=O)N1 (stereo unspecified) | 121%
21 | Nc1c(C(=O)NCCN2CCOCC2)c2nc3ccccc3nc2n1-c1cccc(F)c1 | 72.9%
22 | Cc1cc(=O)oc2c(CN3CC(C)OC(C)C3)c(O)c(Cl)cc12 (stereo unspecified) | 167%

Row | Structure (SMILES) | inhibition
23 | c1ccc(Cn2c(-c3cccs3)nc3nc4ccccc4nc32)cc1 | 82.6%
24 | CCOC(=O)c1cc2c(=O)n3ccccc3nc2n(C(C)C)c1=NC(=O)c1ccncc1 | 177%
25 | Oc1ccc(O)c(-c2cnns2)c1 | 56.4%
26 | O=c1c2ccccc2sc2ccc(Cl)cc12 | 113%
27 | Cc1c(Cc2ccccc2)sc(/N=C/c2c(O)ccc3ccccc23)c1C(N)=O | 71.5%
28 | CC(C)CN(C(=O)CN1CCc2ccccc21)c1c(N)n(CC(C)C)c(=O)[nH]c1=O | 98.1%
29 | O=S(=O)(c1ccc(N2CCC(c3ccc(Cl)cc3)=N2)cc1)N(CCO)CCO | 112%
30 | N=c1c(C(=O)NCc2ccc(F)cc2)cc2c(=O)n3ccccc3nc2n1Cc1ccco1 | 71.5%
31 | COc1ccc(C2c3ccc(O)cc3Oc3ncn(CC(C)C)c(=N)c32)cc1 (stereo unspecified) | 65%
32 | Nc1n[nH]c2cc(=O)n(-c3ccc(Cl)cc3)nc12 | 55.6%
33 | O=C(Nc1nccs1)c1ccccc1N=Cc1ccccc1 | 60.9%
34 | C/C(=N/NC(=O)c1cccs1)c1c(C)[nH]n(-c2nc3ccccc3s2)c1=O | 83.1%
35 | CC(C)(C)OC(=O)NCC(=O)Oc1cc2oc(=O)cc(-c3ccccc3)c2cc1Cl | 71.5%
36 | CCOC(=O)C1=C(Cc2ccc(Cl)cc2)C(=O)c2ccccc2C1=O | 61.3%
37 | O=C(CSc1ncnc2ccccc12)c1ccco1 | 135%
38 | N#Cc1c(-c2ccccc2Cl)c2c([nH]c1=O)-c1ccccc1OC2 | 70.6%
39 | CCOC(=O)c1cc2c(=O)n3cccc(C)c3nc2n(Cc2ccco2)c1=NC(=O)c1ccccc1 | 128%
40 | Cn1c(NNC(=O)c2cccc3ccccc23)cc(=O)n(C)c1=O | 105%
41 | CCN(CC)c1ccc2c(C)c(Cl)c(=O)oc2c1 | 70.6%
42 | O=C(NNc1c2ccccc2nc2ccccc12)c1ccc(O)cc1 | 96.8%
43 | CCCCn1nc(NC(=O)c2cccs2)c2cc3cc(OC)ccc3nc21 | 114%
44 | CCN(CC)c1ccc(/C=N/NC(=O)c2ccco2)c(O)c1 | 83.4%

Row | Structure (SMILES) | inhibition
45 | COc1ccc(Cn2c(O)c(/C=N/NC(=O)c3cccnc3)c3ccccc3c2=O)cc1 | 70.6%
46 | CCc1ccccc1N1CSC2=C(C#N)C(c3ccccc3F)CC(=O)N2C1 (stereo unspecified) | 119%
47 | CC1(C)CC(=O)C2=C(C1)N(CCN1CCOCC1)C1=C(C(=O)CC(C)(C)C1)C2c1cccc(F)c1 | 71.5%
48 | C/C(=N\Nc1nc(-c2cc(C)ccc2C)cs1)c1cc2c(ccc3ccccc32)oc1=O | 71.5%
49 | N#Cc1cnn2c3c(cnc12)C(=O)N1CCc2ccccc2C1C3 (stereo unspecified) | 171%
50 | CC1=C(C(=O)OC(C)C)C(c2cccnc2)C2=C(CC(C)(C)CC2=O)N1 (stereo unspecified) | 138%
51 | Cc1cc2c3c(ccc(C)c3n1)N=CN2c1ccccc1 | 71.5%
52 | CNc1sc(C(=O)c2cccs2)c(N)c1-c1nc2ccccc2s1 | 78.7%
53 | O=c1c2ccccc2[nH]c2ccccc12 | 186%
54 | CCCCCCc1cc2cc(S(=O)(=O)c3ccc(F)cc3)c(=O)oc2cc1O | 71.5%
55 | CN(C)c1oc(/C=C/c2ccccc2)nc1C#N | 135%
56 | CCc1c(C)c2cc(Cl)c(O)c(CN(C)C)c2oc1=O | 173%
57 | O=C(Nc1cc2c(=O)n(-c3ccc(Oc4ccccc4)cc3)ccc2oc1=O)c1ccccc1 | 144%
58 | Cc1ccc(CNC(=O)c2cc3c(=O)n4ccccc4nc3n(CC3CCCO3)c2=N)cc1 (stereo unspecified) | 71.5%
59 | CN1CCc2c(sc3c2C(=O)NC(c2cccc(OC(=O)c4cccs4)c2)N3)C1 (stereo unspecified) | 143%
60 | Cc1cc(-n2c(=O)c(C#N)cc3c(=O)n4cccc(C)c4nc32)no1 | 71.5%
61 | O=C(c1ccc(Cl)cc1)N1CCN(c2ccc(F)cc2)CC1 | 59.5%
62 | CCCn1c(=NC(=O)c2ccc3c(c2)OCO3)c(C#N)cc2c(=O)n3cccc(C)c3nc21 | 121%
63 | Cc1oc2cc(O)ccc2c(=O)c1-c1nncn1-c1ccccc1 | 63.6%
64 | N#CC1=C(N)C(C#N)(C#N)[C@H](c2ccoc2)[C@H]2CN(Cc3ccccc3)CC=C12 | 76.5%
65 | O=C(c1cc2ccccc2oc1=O)N1CCN(CCc2ccccc2)CC1 | 84.7%
66 | Cn1c(=O)c(/C=C/c2ccccc2)nc2ccccc21 | 89.9%

Row | Structure (SMILES) | inhibition
67 | Cc1c(Cc2ccccc2)c(NCCCO)n2c(nc3ccccc32)c1C#N | 81.3%
68 | CC(=O)Nc1sc2c(c1C(N)=O)CCN(Cc1ccccc1)C2 | 169%
69 | COc1cccc(N=c2oc3cc(O)ccc3cc2C(=O)NCC2CCCO2)c1 (stereo unspecified) | 70.6%
70 | O=S(=O)(Nc1nc2ccccc2nc1-[n+]1cccc(N=C([O-])c2ccccc2Cl)c1)c1ccccc1 | 116%
71 | COCCn1c(N)c(C(=O)NCC2CCCO2)c2nc3ccccc3nc21 (stereo unspecified) | 72.9%
72 | CC1(C)CC(=O)C2=C(C1)N(CCN1CCOCC1)C1=C(C(=O)CC(C)(C)C1)C2c1ccc(Cl)cc1 | 70.6%
73 | Cc1ncc(CO)c(/C=N/NC(=O)c2ccc(O)cc2)c1O | 71.5%
74 | Cc1cc(C)c2c(=O)n(CC(=O)Nc3cccc(F)c3)sc2n1 | 55.9%
75 | C=CCn1c(=N)c(C#N)cc2c(=O)n3ccccc3nc21 | 71.5%
76 | CN1CC=C2C(C#N)=C(N)C(C#N)(C#N)C(CCc3ccccc3)C2C1 (stereo unspecified) | 71.5%
77 | COC(=O)c1ccccc1N/C=C1\CCc2c(c(C)nn2-c2ccccn2)C1=O | 53.7%
78 | CCCc1cc(=O)oc2c(CN3CCCC3)c(O)ccc12 | 129%
79 | COc1cccc2c1NC(C(=O)O)C1CC=CC21 (stereo unspecified) | 47.7%
80 | CCCNC(=O)COC(=O)c1cc2c(=O)n3ccccc3nc2s1 | 144%
81 | CSc1nc(-c2ccc(N(C)C)cc2)c(C#N)c(=O)n1C | 70.6%
82 | COc1cccc2c(=O)c3cccc(N)c3[nH]c12 | -71.3%
83 | CCN1CCc2c(sc(NC(=S)NC(=O)c3ccc(Cl)cc3)c2C(N)=O)C1 | 110%
84 | COc1cc(NS(=O)(=O)c2ccc(N/C=C\C(=O)c3ccc(OC)c(OC)c3)cc2)nc(OC)n1 | 108%
85 | CCCCCCc1cc2cc(C(=O)NC)c(=N)oc2cc1O | 72.9%
86 | COCCCn1c(=N)c(C(=O)NCC2CCCO2)cc2c(=O)n3ccccc3nc21 (stereo unspecified) | 72.9%
87 | COc1cccc(C2C(C#N)=C(C)NC3=C2C(=O)CC(C)(C)C3)c1 (stereo unspecified) | 55.2%
88 | Cc1ccc2nc3c(cc(C#N)c(=O)n3-c3nccs3)c(=O)n2c1 | 72.9%

Row | Structure (SMILES) | inhibition
89 | CC(Oc1ccc(Cl)cc1Cl)C(=O)NCCCn1ccnc1 (stereo unspecified) | 90.3%
90 | C=CCNC(=O)c1cc2c(=O)n3cc(C)ccc3nc2nc1NCC1CCCO1 (stereo unspecified) | 71.5%
91 | OCCNc1nc(-c2ccccc2)c2cc(Cl)ccc2n1 | 82.6%
92 | N#Cc1c(N)n(-c2cccc(O)c2)c2nc3ccccc3nc12 | 133%
93 | Cc1ccc(-n2c(=O)c(C#N)cc3c(=O)n4cccc(C)c4nc32)cc1 | 167%
94 | CCc1c(C)c(C#N)c2nc3ccccc3n2c1NCc1ccco1 | 78.8%
95 | CCC1(C)Cc2c(sc3[nH]c(=O)[nH]c(=O)c23)CS1 (stereo unspecified) | 106%
96 | CC(C)OC(=O)c1c2nc3ccccc3nc2n2c1[nH]c(=O)c1ccccc12 | 71.5%
97 | CC1(C)CC(=O)C2=C(C1)Nc1[nH]c(=S)[nH]c(=O)c1C2c1ccccc1 (stereo unspecified) | 53.4%
98 | CN1CC=C2C(C#N)=C(N)C(C#N)(C#N)[C@H](c3cccs3)[C@H]2C1 | 111%
99 | Cc1cc2c(C)cc(=O)oc2c2c1NCCC2 | 72.9%
100 | CC(=O)c1c(N2CCN(CCO)CC2)nc(=S)n(-c2ccccc2)c1C | 70.6%
101 | CC(=O)Nc1nc2n(n1)C(c1ccc(Cl)cc1)C=C(C)N2 (stereo unspecified) | 86.3%
102 | CCN(CC)Cc1c(O)c(Cl)cc2c(C)c(C)c(=O)oc12 | 153%
103 | CCc1c(C)c2ccc(O)c(CN(C)C)c2oc1=O | 133%
104 | COc1ccc(-c2cc(C(F)(F)F)n3nc(N)nc3n2)cc1 | 68.1%
105 | Cc1cc(C)c2c(=O)n(CC(=O)N3CCC(Cc4ccccc4)CC3)sc2n1 | 52.7%
106 | Cc1c(C)c2cc(Cl)c(O)c(CN3CCN(C)CC3)c2oc1=O | 169%
